Results taken from the supplement of paper PMC12217912.
This is one part of the list. Sequences were assembled here from the parent chain. Inactive controls read about 0.05.

B1: TEV protease; numbered along this chain (parent)
chain: MGESLFKGPRDYNPISSSICHLTNESDGHTTSLYGIGFGPFIITNKHLFRRNNGTLVVQSLHGVFKVKDTTTLQQHLVDGRDMIIIRMPKDFPPFPQKLKFREPQREERICLVTTNFQTKSMSSMVSDTSCTFPSGDGIFWKHWIQTKDGQCGSPLVSTRDGFIVGIHSASNFTNTNNYFTSVPKNFMELLTNQEAQQWVSGWRLNADSVLWGGHKVFMVKPEEPFQPVKEATQL

Variants of: B1
Assay: raw area under fraction-flipped curve 0-4 h after induction (AUC4h, not background-subtracted), DNA-recorder readout of cleavage of the substrate (dimensionless); higher = more cleavage of the substrate by the protease variant
Settings: temperature: 34 °C; time window: 0-4 h after rhamnose induction
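Further: Bxb1 expression induced with 0.2% (w/v) L-rhamnose at OD600 near 0.5, cultures sampled hourly, flipped fraction per protease–substrate barcode pair counted by paired-end Illumina sequencing.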

Variant | area with substrate HNLYFQS | area with substrate PNLYFQS | area with substrate TNLYFQS | area with substrate INLYFQS | area with substrate SNLYFQS | area with substrate NNLYFQS | area with substrate RNLYFQS | area with substrate WNLYFQS | area with substrate LNLYFQS | area with substrate MNLYFQS
MGESLFKGPRDYNPISSSICHLTNESDGHTTSLYGIGFGPFIITNKHLFRRNNGTLVVQSLHGVFKVKDTTTLQQHLVDGRDMIIIRMPKDFPPFPQKLKFREPQREERICLVTTNFQTKSMSSMVSDTSCTFPSGDGIFWKHWIQTKDGQCGSPLVSTRDGFIVGIHSASNFTNTNNYFTSVPKNFMELLTNQEAQQWVSGWRLNADSVLWGGHKVFMVKPEEPFQPVKEATQF [L235F] | 0.0543 | 0.0576 | 0.0792 |  |  |  |  |  |  | 
MGESLFHGPRDYNPISSSICHLTNESDGHTTSLYGIGFGPFIITNKHLFRRNNGTLVVQSLHGVFKVKDTTTLQQHLVDGRDMIIIRMPKDFPPFPQKLKFREPQREERICLVTTNFQTKSMSSMVSDTSCTFPSGDGIFWKHWIQTKDGQCGSPLVSTRDGFIVGIHSASNFTNTNNYFTSVPKNFMELLTNQEAQQWVSGWRLNADSVLWGGHKVFMVKPEEPFQPVKEATQL [K7H] |  |  | 0.0953 | 0.0899 | 0.0141 |  |  |  |  | 
MGESLFKGPRDYNPISSSICHLTNESDGHTTSLYGIGFGPFIITNKHLFRRNNGTLVVQSLHGVFKVKDTTTLQQHLVEGRDMIIIRMPKDFPPFPQKLKFREPQREERICLVTTNFQTKSMSSMVSDTSCTFPSGDGIFWKHWIQTKDGQCGSPLVSTRDGFIVGIHSASNFTNTNNYFTSVPKNFMELLTNQEAQQWVSGWRLNADSVLWGGHKVFMVKPEEPFQPVKEATQL [D79E] |  |  |  | 0.0488 |  | 0.0494 | 0.0424 | 0.0618 |  | 
MGESLFKGPRDYNPISSSICHLTNESDGHTTSLYGIGFGPFIITNKHLFRRNNGTLVVQSLHGVFKVKDTTTLQQHLVQGRDMIIIRMPKDFPPFPQKLKFREPQREERICLVTTNFQTKSMSSMVSDTSCTFPSGDGIFWKHWIQTKDGQCGSPLVSTRDGFIVGIHSASNFTNTNNYFTSVPKNFMELLTNQEAQQWVSGWRLNADSVLWGGHKVFMVKPEEPFQPVKEATQL [D79Q] |  |  |  | 0.0592 |  |  |  | 0.0643 | 0.0641 | 
MGESLFKGPRDYNPISSSICHLTNESDGHTTSLYGIGFGPFIITNKHLFRRNNGTLVVQSLHGVFKVKDTTTLQQHLVDGRDMIIIRMCKDFPPFPQKLKFREPQREERICLVTTNFQTKSMSSMVSDTSCTFPSGDGIFWKHWIQTKDGQCGSPLVSTRDGFIVGIHSASNFTNTNNYFTSVPKNFMELLTNQEAQQWVSGWRLNADSVLWGGHKVFMVKPEEPFQPVKEATQL [P89C] |  |  |  | 0.0527 |  |  |  | 0.0645 |  | 
MGESLFKGPRDYNPISSSICHLTNESDGHTTSLYGIGFGPFIITNKHLFRRNNGTLVVQSLHGVFKVKDTTTLQQHLVDGRDMIIIRMPKTFPPFPQKLKFREPQREERICLVTTNFQTKSMSSMVSDTSCTFPSGDGIFWKHWIQTKDGQCGSPLVSTRDGFIVGIHSASNFTNTNNYFTSVPKNFMELLTNQEAQQWVSGWRLNADSVLWGGHKVFMVKPEEPFQPVKEATQL [D91T] |  | 0.0595 |  | 0.0636 |  |  |  |  |  | 0.0633
MGESLFKGPRDYNPISSSICHLTNESDGHTTSLYGIGFGPFIITNKHLFRRNNGTLVVQSLHGVFKVKDTTTLQQHLVDGRDMIIIRMPKDFLPFPQKLKFREPQREERICLVTTNFQTKSMSSMVSDTSCTFPSGDGIFWKHWIQTKDGQCGSPLVSTRDGFIVGIHSASNFTNTNNYFTSVPKNFMELLTNQEAQQWVSGWRLNADSVLWGGHKVFMVKPEEPFQPVKEATQL [P93L] |  |  |  | 0.0235 |  |  |  |  |  | 
MGESLFKGPRDYNPISSSICHLTNESDGHTTSLYGIGFGPFIITNKHLFRRNNGTLVVQSLHGVFKVKDTTTLQQHLVDGRDMIIIRMPKDFPPFPQKIKFREPQREERICLVTTNFQTKSMSSMVSDTSCTFPSGDGIFWKHWIQTKDGQCGSPLVSTRDGFIVGIHSASNFTNTNNYFTSVPKNFMELLTNQEAQQWVSGWRLNADSVLWGGHKVFMVKPEEPFQPVKEATQL [L99I] |  | 0.067 |  | 0.0584 | 0.0745 |  |  |  |  | 
MGESLFKGPRDYNPISSSICHLTNESDGHTTSLYGIGFGPFIITNKHLFRRNNGTLVVQSLHGVFKVKDTTTLQQHLVDGRDMIIIRMPKDFPPFPQKLKEREPQREERICLVTTNFQTKSMSSMVSDTSCTFPSGDGIFWKHWIQTKDGQCGSPLVSTRDGFIVGIHSASNFTNTNNYFTSVPKNFMELLTNQEAQQWVSGWRLNADSVLWGGHKVFMVKPEEPFQPVKEATQL [F101E] |  |  | 0.048 | 0.0507 |  |  |  |  | 0.0954 | 
MGESLFKGPRDYNPISSSICHLTNESDGHTTSLYGIGFGPFIITNKHLFRRNNGTLVVQSLHGVFKVKDTTTLQQHLVDGRDMIIIRMPKDFPPFPQKLKFNEPQREERICLVTTNFQTKSMSSMVSDTSCTFPSGDGIFWKHWIQTKDGQCGSPLVSTRDGFIVGIHSASNFTNTNNYFTSVPKNFMELLTNQEAQQWVSGWRLNADSVLWGGHKVFMVKPEEPFQPVKEATQL [R102N] |  |  |  | 0.0449 | 0.0489 |  |  |  |  | 0.0547
MGESLFKGPRDYNPISSSICHLTNESDGHTTSLYGIGFGPFIITNKHLFRRNNGTLVVQSLHGVFKVKDTTTLQQHLVDGRDMIIIRMPKDFPPFPQKLKFREPQREETICLVTTNFQTKSMSSMVSDTSCTFPSGDGIFWKHWIQTKDGQCGSPLVSTRDGFIVGIHSASNFTNTNNYFTSVPKNFMELLTNQEAQQWVSGWRLNADSVLWGGHKVFMVKPEEPFQPVKEATQL [R109T] |  |  | 0.0519 | 0.0628 |  | 0.0663 |  | 0.0537 |  | 
MGESLFKGPRDYNPISSSICHLTNESDGHTTSLYGIGFGPFIITNKHLFRRNNGTLVVQSLHGVFKVKDTTTLQQHLVDGRDMIIIRMPKDFPPFPQKLKFREPQREEYICLVTTNFQTKSMSSMVSDTSCTFPSGDGIFWKHWIQTKDGQCGSPLVSTRDGFIVGIHSASNFTNTNNYFTSVPKNFMELLTNQEAQQWVSGWRLNADSVLWGGHKVFMVKPEEPFQPVKEATQL [R109Y] |  |  |  | 0.0615 |  | 0.0664 |  |  |  | 
MGESLFKGPRDYNPISSSICHLTNESDGHTTSLYGIGFGPFIITNKHLFRRNNGTLVVQSLHGVFKVKDTTTLQQHLVDGRDMIIIRMPKDFPPFPQKLKFREPQREERICLVTTNFQTKSMSGMVSDTSCTFPSGDGIFWKHWIQTKDGQCGSPLVSTRDGFIVGIHSASNFTNTNNYFTSVPKNFMELLTNQEAQQWVSGWRLNADSVLWGGHKVFMVKPEEPFQPVKEATQL [S124G] |  |  |  | 0.0569 | 0.0664 | 0.0607 |  |  |  | 
MGESLFKGPRDYNPISSSICHLTNESDGHTTSLYGIGFGPFIITNKHLFRRNNGTLVVQSLHGVFKVKDTTTLQQHLVDGRDMIIIRMPKDFPPFPQKLKFREPQREERICLVTTNFQTKSMSSMVSDTSCTFPSGDGIFWKHWIQSKDGQCGSPLVSTRDGFIVGIHSASNFTNTNNYFTSVPKNFMELLTNQEAQQWVSGWRLNADSVLWGGHKVFMVKPEEPFQPVKEATQL [T147S] |  |  |  | 0.0561 |  |  | 0.0722 |  | 0.0648 | 

Same assay, conditions: temperature: 34 °C; time window: 0-4 h after rhamnose induction

Variant | area with substrate YNLYFQS | area with substrate KNLYFQS | area with substrate VNLYFQS
MGESLFKGPRDYNPISSSICHLTNESDGHTTSLYGIGFGPFIITNKHLFRRNNGTLVVQSLHGVFKVKDTTTLQQHLVDGRDMIIIRMPKTFPPFPQKLKFREPQREERICLVTTNFQTKSMSSMVSDTSCTFPSGDGIFWKHWIQTKDGQCGSPLVSTRDGFIVGIHSASNFTNTNNYFTSVPKNFMELLTNQEAQQWVSGWRLNADSVLWGGHKVFMVKPEEPFQPVKEATQL [D91T] | 0.0542 |  | 
MGESLFKGPRDYNPISSSICHLTNESDGHTTSLYGIGFGPFIITNKHLFRRNNGTLVVQSLHGVFKVKDTTTLQQHLVDGRDMIIIRMPKDFLPFPQKLKFREPQREERICLVTTNFQTKSMSSMVSDTSCTFPSGDGIFWKHWIQTKDGQCGSPLVSTRDGFIVGIHSASNFTNTNNYFTSVPKNFMELLTNQEAQQWVSGWRLNADSVLWGGHKVFMVKPEEPFQPVKEATQL [P93L] | 0.033 |  | 
MGESLFKGPRDYNPISSSICHLTNESDGHTTSLYGIGFGPFIITNKHLFRRNNGTLVVQSLHGVFKVKDTTTLQQHLVDGRDMIIIRMPKDFPPFPQKIKFREPQREERICLVTTNFQTKSMSSMVSDTSCTFPSGDGIFWKHWIQTKDGQCGSPLVSTRDGFIVGIHSASNFTNTNNYFTSVPKNFMELLTNQEAQQWVSGWRLNADSVLWGGHKVFMVKPEEPFQPVKEATQL [L99I] | 0.0454 | 0.0741 | 
MGESLFKGPRDYNPISSSICHLTNESDGHTTSLYGIGFGPFIITNKHLFRRNNGTLVVQSLHGVFKVKDTTTLQQHLVDGRDMIIIRMPKDFPPFPQKLKEREPQREERICLVTTNFQTKSMSSMVSDTSCTFPSGDGIFWKHWIQTKDGQCGSPLVSTRDGFIVGIHSASNFTNTNNYFTSVPKNFMELLTNQEAQQWVSGWRLNADSVLWGGHKVFMVKPEEPFQPVKEATQL [F101E] | 0.0467 | 0.0546 | 
MGESLFKGPRDYNPISSSICHLTNESDGHTTSLYGIGFGPFIITNKHLFRRNNGTLVVQSLHGVFKVKDTTTLQQHLVDGRDMIIIRMPKDFPPFPQKLKFREPQREETICLVTTNFQTKSMSSMVSDTSCTFPSGDGIFWKHWIQTKDGQCGSPLVSTRDGFIVGIHSASNFTNTNNYFTSVPKNFMELLTNQEAQQWVSGWRLNADSVLWGGHKVFMVKPEEPFQPVKEATQL [R109T] | 0.0589 | 0.0755 | 
MGESLFKGPRDYNPISSSICHLTNESDGHTTSLYGIGFGPFIITNKHLFRRNNGTLVVQSLHGVFKVKDTTTLQQHLVDGRDMIIIRMPKDFPPFPQKLKFREPQREEYICLVTTNFQTKSMSSMVSDTSCTFPSGDGIFWKHWIQTKDGQCGSPLVSTRDGFIVGIHSASNFTNTNNYFTSVPKNFMELLTNQEAQQWVSGWRLNADSVLWGGHKVFMVKPEEPFQPVKEATQL [R109Y] |  | 0.061 | 
MGESLFKGPRDYNPISSSICHLTNESDGHTTSLYGIGFGPFIITNKHLFRRNNGTLVVQSLHGVFKVKDTTTLQQHLVDGRDMIIIRMPKDFPPFPQKLKFREPQREERICLVTTNFQTKSMSSMVSDTSCTFPSGDGIFWKHWIQSKDGQCGSPLVSTRDGFIVGIHSASNFTNTNNYFTSVPKNFMELLTNQEAQQWVSGWRLNADSVLWGGHKVFMVKPEEPFQPVKEATQL [T147S] |  |  | 0.0448
